Data reported in PubChem BioAssay AID1745845 (National Center for Advancing Translational Sciences (NCATS), 2022).
Among all 360,000 compounds or so, about 2,600 (0.72%) were called active. This list was built around the results that the source calls inconclusive (neither active nor inactive); the mix of calls is not that of the screen. The call rests on the fitted dose curve; in most records, active means well fitted inhibition curve with a large enough effect; inconclusive means small, poorly fitted or top-dose-only effect; inactive means no such curve, though single readings can be large or run the other way. Potencies beside an inconclusive call are fits to weak or partial responses and may not hold up.

Assay: Primary qHTS for Inhibitors of ATXN expression; further: nearly all actives have a fitted effect of over 55% in size
Conditions: HEK-293 ATXN2-luciferase reporter, luminescence, 24 h; series mostly up to 57 µM
In short: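 ATXN2-luciferase reporter cells (luciferase flanked by upstream and downstream ATXN2 gene portions) were treated 24 h at 37 °C with compounds at up to 57 uM. SteadyGlo luminescence gave expression; GF-AFC fluorescence gave viability.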
Potency means the concentration at half of the fitted maximal effect; tags describe the fitted curve by direction and shape.

SMILES | Potency
Cc1c(NS(=O)(=O)c2ccccc2)cc(C(C)C)c(O)c1S(=O)(=O)c1ccc(Cl)cc1 | inconclusive: 39.8 µM [inhibitor, single point]
Cc1nc(/C(N)=N/OC(=O)c2c(-c3ccccc3Cl)noc2C)cs1 | inactive
CC#CC[N+](C)(C)CCCCCCCCCC | inconclusive: 28.2 µM [inhibitor, partial curve, poor fit]
CCN(CC)CCN(C)C(c1cc2ccccc2o1)c1nnnn1C(C)(C)C (centres undefined) | inactive
CN1C(=O)c2ccccc2Sc2ccc(NC(=O)COc3ccc(F)cc3)cc21 | inconclusive: 22.4 µM [inhibitor, single point]
Clc1ccccc1-c1nnc2sc(-c3ccc(Br)o3)nn12 | inactive
Cc1cscc1-c1nc(NCC2CC2)nc2ccsc12 | inactive
O=C(CN1CCN(C(=O)c2ccc(-c3nc4ccccc4s3)o2)CC1)Nc1ccc(F)cc1 | inconclusive: 39.8 µM [inhibitor, single point]
CSc1ncccc1C(=O)Nc1cccc(S(=O)(=O)N(C)c2ccccc2)c1 | inactive
CN(Cc1ccccc1)C(=O)c1cccc(NC(=O)Cc2ccc(NC(=O)C3CCN(C(=O)CCc4ccccc4)CC3)cc2)c1 | inconclusive: 25.1 µM [inhibitor, single point]
O=c1[nH]c2ccccc2nc1/C=C/c1ccc(Cl)cc1 | inactive
CC(=O)NC(c1ccccc1)c1nc(-c2csc3ccccc23)cs1 (centres undefined) | inconclusive: 39.8 µM [inhibitor, single point]
CCN(CC(=O)Nc1c(F)cccc1F)C(=O)CCNS(=O)(=O)c1ccc(C)c(C)c1 | inactive
CC(/C=C/c1ccccc1F)=N\NC(=O)c1cccc(F)c1 | inconclusive: 37.7 µM [inhibitor, single point]
CC(C)C[C@H](NC(=O)c1[nH]cnc1C(=O)N[C@@H](C)C(=O)OC(C)(C)C)C(=O)OCc1ccccc1 | inconclusive: 35.5 µM [inhibitor, single point]
CCOC(=O)/C=C/C(=O)Nc1ccc(Oc2ccccc2)cc1 | inconclusive: 18.9 µM [inhibitor, partial curve, poor fit]
Cc1ccc(NC(=Nc2ccc(Br)cc2)N2CCOCC2)cc1C | inconclusive: 6.31 µM [inhibitor, partial curve, poor fit]
Cc1cccc2cc(CN(C(=S)NCC(C)C)C3CCCC3)c(=O)[nH]c12 | inactive
CSc1ccccc1NC(=O)c1cc(-c2cccnc2)nc2ccc(Br)cc12 | inconclusive: 21.2 µM [inhibitor, partial curve, poor fit]
CN(C)CCCN(Cc1ccccc1)C(=S)Nc1ccc(F)c(Cl)c1 | inconclusive: 37.7 µM [inhibitor, single point]
COc1ccc(/C=C2\C(=O)ON=C2c2ccccc2)cc1 | inconclusive: 6.31 µM [inhibitor, single point]
Cc1cccc(C)c1NC(=S)NN(Cc1ccccc1)c1ccccc1 | inactive
CCN(CC)c1cc(C)c2cc(NC(=O)c3ccccc3OC)ccc2n1 | inconclusive: 4.47 µM [inhibitor, full curve, poor fit]

SMILES | Potency
N#C/C(=C\c1ccc([N+](=O)[O-])cc1)c1ccccn1 | inactive
COc1ccc(Cn2c(=O)c3cccnc3n(Cc3cccc(OC)c3)c2=O)cc1 | inactive
O=S(=O)(c1ccccc1)N1CCN(C2CCCCCCC2)CC1 | inactive
CCOC(=O)c1c(-c2ccccc2)oc2ccc(NS(=O)(=O)c3ccc(C)cc3C)cc12 | inconclusive: 39.8 µM [inhibitor, single point]
Cc1nc2ccc(NC(=O)c3cccc(S(=O)(=O)N(C)c4ccccc4)c3)cc2s1 | active: 28.2 µM
CC(=O)c1cc(CN2CCC(C(=O)Nc3cccc(-c4cscn4)c3)CC2)cs1 | inconclusive: 28.2 µM [inhibitor, single point]
CCOC(=O)C1(Cc2ccccc2C(F)(F)F)CCN(C(C)CCn2cccn2)CC1 (centres undefined) | inconclusive: 12.6 µM [inhibitor, partial curve, poor fit]
CCCCCCN1C[C@H](n2cc(-c3ccc(F)cc3)nn2)[C@@H](O)C[C@@H]1c1ccc(C)cc1 | inconclusive: 39.8 µM [inhibitor, partial curve, poor fit]
COc1ccc(-n2nnc3c(SCC(=O)NCc4ccco4)ncnc32)cc1 | inconclusive: 39.8 µM [inhibitor, single point]
CC(=O)N(C)c1ccc(OCC(O)Cn2c3ccc(Cl)cc3c3cc(Cl)ccc32)cc1 (centres undefined) | inconclusive: 28.2 µM [inhibitor, single point]
Cc1cccc(N2CCN(C(=O)c3ccc(CS(=O)Cc4ccc(Cl)cc4)o3)CC2)c1C (centres undefined) | inconclusive: 25.1 µM [inhibitor, single point]
COc1ccccc1Nc1nnc(SCC2CCCCO2)s1 (centres undefined) | inactive
COC(=O)c1ccc(CCc2cc(O)c(Br)cc2O)cc1 | inconclusive: 39.8 µM [inhibitor, single point]
Cc1cc(C)cc(-n2c(O)c(C=NC3CCS(=O)(=O)C3)c3ccccc3c2=O)c1 (centres undefined) | inactive
CC(C)(C)n1nnnc1C(c1ccc(C(F)(F)F)cc1)N(Cc1ccc(F)cc1)Cc1ccco1 (centres undefined) | inactive
CN1CCC(=C2c3ccccc3CCc3cccnc32)CC1 | inactive
COc1ccc(C(=O)c2cn(Cc3ccc(F)cc3)c3ccc(C)cc3c2=O)cc1 | inconclusive: 35.5 µM [inhibitor, single point]
CCC(=O)N1CCN(c2nc(-c3ccc(Cl)cc3)cs2)CC1 | inconclusive: 17.8 µM [inhibitor, partial curve, poor fit]
COc1cc(/C=N/Nc2snc(SC)c2C#N)cc(OC)c1OC | active: 3.16 µM
N#Cc1cccc(NC(=O)CSc2ccc3c4c(cccc24)C(=O)c2ccccc2-3)c1 | inconclusive: 39.8 µM [inhibitor, single point]
CC(=O)Nc1sc(C)c(C)c1C(=O)OCC(=O)N(CC(C)C)c1c(N)n(Cc2ccccc2)c(=O)[nH]c1=O | inconclusive: 4.47 µM [inhibitor, partial curve, poor fit]
COc1ccc(S(=O)(=O)N2CCN(C(=S)NCCc3ccccc3)CC2)cc1 | inactive
C=CCn1c(CCC(=O)O)ccc1-c1ccccc1 | inactive

SMILES | Potency
Cc1ccc(CN2C(=O)C(O)(c3c[nH]c4ccccc34)c3cc(Cl)ccc32)cc1 (centres undefined) | inconclusive: 39.8 µM [inhibitor, single point]
O=C(NNS(=O)(=O)c1ccccc1[N+](=O)[O-])c1ccc(F)cc1 | inconclusive: 25.1 µM [inhibitor, single point]
CCCc1nc([N+](=O)[O-])c(S(=O)(=O)c2ccccc2)n1CC(C)C | inconclusive: 35.5 µM [inhibitor, single point]
COc1ccc(C2c3c(-c4c(C)cc(C)cc4O)n[nH]c3C(=O)N2Cc2ccco2)cc1 (centres undefined) | inconclusive: 39.8 µM [inhibitor, single point]
O=C(NCCCN1CCN(c2ccc(F)cc2)CC1)Nc1ccc(Cl)cc1 | inconclusive: 25.1 µM [inhibitor, partial curve]
CCn1c(SCC(=O)Nc2nc3ccc(C)cc3s2)nc2c(c1=O)SC(C)C2 (centres undefined) | inconclusive: 14.1 µM [inhibitor, partial curve, poor fit]
S=C(NCc1ccccn1)NN=Cc1ccccn1 | inconclusive: 3.98 µM [inhibitor, full curve]
COc1ccc(Cc2c(-c3cccc(Cl)c3)nc3cc(C)c(Br)c(C)n23)c(C)c1 | inactive
COCCN(CCOC)C(=O)c1ccc(CSc2nc3ccccc3s2)cc1 | inactive
COc1ccc(C(CNC(=O)c2cc3c(s2)CCC(C)C3)N2CCCC2)cc1 (centres undefined) | inconclusive: 39.8 µM [inhibitor, single point]
CC(C)C[C@H](NC(=O)[C@@H](NC(=O)c1cccc(-c2ccccc2)n1)[C@@H](C)O)B(O)O | active: 0.0611 µM
Cc1ccc(C(=O)O)cc1Nc1nc2ccccc2n2nnnc12 | inactive
CCOc1ccc2nc(C)cc(Nc3ccccc3OCC)c2c1 | inconclusive: 17.8 µM [inhibitor, partial curve, poor fit]
COc1ccc(-c2cc3nc4n(c(=O)c3s2)CCC4)cc1 | active: 5.01 µM
Cc1ccccc1-c1cc(C(=O)NCc2cccc(Br)c2)nn1CC1CC(c2cccc([N+](=O)[O-])c2)=NO1 (centres undefined) | inactive
FC(F)Oc1ccc(NC(=S)Nn2cnnc2)cc1 | inconclusive: 23.8 µM [inhibitor, partial curve, poor fit]
Cc1cc(=O)oc2c1ccc1oc(/C(=N/O)c3ccccc3)c(C)c12 | inconclusive: 22.4 µM [inhibitor, partial curve, poor fit]
O=C(Nc1nc2ccccc2n1CCN1CCCC1)c1ccc(Cl)cc1 | inactive
O=C(NNC(=S)NC(=O)c1cccnc1)c1ccc(Cl)cc1 | inactive
COc1cc(NC(=O)c2ccccc2)ccc1NC(=O)c1cc2ccccc2o1 | inconclusive: 0.891 µM [inhibitor, partial curve, poor fit]
Cc1cccc(NC(=O)c2nc(S(C)(=O)=O)ncc2Cl)c1 | inconclusive: 39.8 µM [inhibitor, single point]
Cc1ccc2oc(-c3cccc(NC(=O)c4ccc(Br)o4)c3C)nc2c1 | inactive
Nc1c(C(=O)c2ccc(Cl)cc2)sc2nsc(SCCN3CCOCC3)c12 | inconclusive: 15.8 µM [inhibitor, partial curve, poor fit]
